In the supplement of paper PMC10498489:
Out of some 2,300 compounds screened, about 330 (14%) showed activity.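 How the source made its calls: active = median modified Z-score above 1.96; inactive = 1.96 or below.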 This is a selection; strong and weak results do not stand in their true shares.

test system: HepG2 Srxn1-GFP reporter cells (+30 nM CDDO-Me); test: Srxn1-GFP intensity median modified Z-score relative to plate median; higher = stronger NRF2 / oxidative stress reporter activation, active = hit call of the paper; conditions: 10 µM; exposure time: 24h
Method in brief: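 The modified Z-score of GFP intensity was computed per plate, and the median over replicates is reported. HepG2 Srxn1-GFP BAC reporter cells in three replicate plates were treated for 24 h with compound at 10 μM plus an NRF2 activator at 30 nM (≤0.1% DMSO). Per-cell cytoplasmic GFP came from confocal images, excluding those with under 100 cells, and scaling used 1.4826 × median absolute deviation.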

Compound	Srxn1-GFP intensity median modified Z-score
Cc1ccc(C(=O)Nc2ccc(S(=O)(=O)O)c3cc(S(=O)(=O)O)cc(S(=O)(=O)O)c23)cc1NC(=O)c1cccc(NC(=O)Nc2cccc(C(=O)Nc3cc(C(=O)Nc4ccc(S(=O)(=O)O)c5cc(S(=O)(=O)O)cc(S(=O)(=O)O)c45)ccc3C)c2)c1 [euspeclibcmpd2231]	inactive: -0.305
CC[C@]1(O)CC2CN(CCc3c([nH]c4ccccc34)[C@@](C(=O)OC)(c3cc4c(cc3OC)N(C=O)[C@H]3[C@@](O)(C(=O)OC)[C@H](OC(C)=O)[C@]5(CC)C=CCN6CC[C@]43[C@@H]65)C2)C1 (stereo partly drawn) [euspeclibcmpd836]	active: 27.5
CNCCC=C1c2ccccc2CCc2ccccc21 [euspeclibcmpd2305]	inactive: -0.346
OC[C@H]1O[C@@H](OCCc2ccc(O)cc2)[C@H](O)[C@@H](O)[C@@H]1O [euspeclibcmpd1781]	inactive: -0.392
Cc1ccc(/C(=C\CN2CCCC2)c2ccccn2)cc1 [euspeclibcmpd313]	inactive: -0.66
CCCCCC(=O)O[C@]1(C(C)=O)CCC2C3CC=C4CC(=O)CC[C@]4(C)C3CC[C@@]21C (stereo partly drawn) [euspeclibcmpd155]	active: 13.5
COc1ccc(C(=O)CC(=O)c2ccc(C(C)(C)C)cc2)cc1 [euspeclibcmpd663]	inactive: 0.831
CCOC(=O)C1=C(COCCN)N=C(C)C(C(=O)OC)C1c1ccccc1Cl (stereo not drawn) [euspeclibcmpd713]	active: 22.6
COc1ccc(C(=O)c2ccccc2)c(O)c1 [euspeclibcmpd221]	inactive: 0.426
COc1c(N2C[C@@H]3CCCN[C@@H]3C2)c(F)cc2c(=O)c(C(=O)O)cn(C3CC3)c12 [euspeclibcmpd682]	inactive: -0.575
C#CCCCCCCCCCCCC(O)CC(O)COC(C)=O (stereo not drawn) [euspeclibcmpd1372]	active: 3.35
CC(C)NCC(O)c1ccc(O)c(O)c1 (stereo not drawn) [euspeclibcmpd165]	inactive: -1.08
CCCCCN(CCCCC)C(=O)C(CCC(=O)O)NC(=O)c1ccc(Cl)c(Cl)c1 (stereo not drawn) [euspeclibcmpd1828]	inactive: -0.305
C[C@@H](COc1ccccc1)N[C@H](C)[C@H](O)c1ccc(O)cc1 [euspeclibcmpd167]	active: 4.4
Cc1occc(=O)c1O [euspeclibcmpd1662]	inactive: -0.469
CC(C)=CC1C(CO)C1(C)C (stereo not drawn) [euspeclibcmpd1789]	active: 2.3
CC(C)(C)NCC(O)COc1cccc2c1CCCC2=O (stereo not drawn) [euspeclibcmpd764]	inactive: -0.976
CCC(C(N)=O)c1ccccc1 (stereo not drawn) [euspeclibcmpd1763]	inactive: 0.173
CC1(C)CC23C(=O)CCC(O)C2(C)CCC13 (stereo not drawn) [euspeclibcmpd2012]	inactive: -0.3
CC1=C(/C=C/C(C)=C/C=C/C(C)=C/C=C/C=C(C)/C=C/C=C(C)/C=C/C2=C(C)C(=O)CCC2(C)C)C(C)(C)CCC1=O [euspeclibcmpd1669]	inactive: -0.405
O=NN(CCCl)C(=O)NCCCl [euspeclibcmpd1168]	inactive: 0.697
CCOC(=O)c1ncn2c1CN(C)C(=O)c1cc(F)ccc1-2 [euspeclibcmpd847]	inactive: -0.463
O=C1CC(=O)c2ccccc2C1=O [euspeclibcmpd1562]	active: 9.54
CC(C(=O)O)c1cccc(C(=O)c2ccccc2)c1 (stereo not drawn) [euspeclibcmpd422]	inactive: -0.217
CC1(O)CCC(C(C)(C)O)CC1 (stereo not drawn) [euspeclibcmpd966]	inactive: -0.099

Compound	Srxn1-GFP intensity median modified Z-score
O=C1CC(=O)c2c(c(O)c3ccccc3c2O)C1=O [euspeclibcmpd1727]	active: 8.98
CCOC(=O)n1ccn(C)c1=S [euspeclibcmpd1210]	inactive: -0.0187
C=C[C@](C)(O)CCC=C(C)C [euspeclibcmpd1465]	inactive: -0.00229
C[C@@H]1CC[C@H]2[C@@H](C)C(O)O[C@@H]3O[C@]4(C)CC[C@@H]1[C@]32OO4 (stereo partly drawn) [euspeclibcmpd1251]	active: 3.33
c1ccc2c(c1)CN1CCCC1=N2 [euspeclibcmpd2355]	inactive: -0.455
S=c1ccss1 [euspeclibcmpd2055]	active: 7.86
Cc1ccccc1OCC(O)CO (stereo not drawn) [euspeclibcmpd397]	inactive: -0.0268
CC(C)(C)C(=O)C(Oc1ccc(Cl)cc1)n1ccnc1 (stereo not drawn) [euspeclibcmpd1197]	inactive: -0.33
CC1(C)C(C(=O)O)N2C(=O)C[C@H]2S1(=O)=O (stereo partly drawn) [euspeclibcmpd473]	inactive: -0.4
CCN(CC)CCOC(=O)C(Cc1cccc2ccccc12)CC1CCCO1 (stereo not drawn) [euspeclibcmpd577]	active: 3.61
CC(C=C/C=C(C)/C=C/C1=C(C)CCCC1(C)C)=CC(=O)O [euspeclibcmpd2414]	active: 3.46
C[C@H](N)[C@H](O)c1cccc(O)c1 [euspeclibcmpd554]	inactive: 0.506
CCN(CC)C(=S)SSC(=S)N(CC)CC [euspeclibcmpd103]	inactive: 0.751
O=c1cc(-c2ccccc2)oc2cc(O)cc(O)c12 [euspeclibcmpd1423]	inactive: 1.71
CC(C)C(N)C(=O)OCCOCn1cnc2c(=O)[nH]c(=N)[nH]c21 (stereo not drawn) [euspeclibcmpd757]	inactive: 0.568
CNC(C)[C@@H]1CC[C@@H](N)[C@@H](OC2[C@@H](N)C[C@@H](N)[C@H](OC3OC[C@](C)(O)[C@H](NC)[C@H]3O)[C@H]2O)O1 (stereo partly drawn) [euspeclibcmpd820]	inactive: -0.00227
Cc1ccc(-n2c(C)cc(C(=O)Cn3ncc(Cl)c(Cl)c3=O)c2C)cc1	active: 29
COc1ccc2c(=O)c(-c3ccc(O)cc3)coc2c1 [euspeclibcmpd2329]	inactive: 0.49
CCN(CC)CCOc1ccc2c(c1)C(=O)c1cc(OCCN(CC)CC)ccc1-2 [euspeclibcmpd940]	active: 5.93
COc1cc([C@@H]2c3cc4c(cc3C(O[C@@H]3O[C@@H]5CO[C@@H](c6cccs6)OC5[C@H](O)[C@H]3O)C3COC(=O)C32)OCO4)cc(OC)c1O (stereo partly drawn) [euspeclibcmpd647]	active: 8.51
N=C(N)N=C(N)NCCc1ccccc1 [euspeclibcmpd898]	active: 4.79
CC(O)CNS(=O)(=O)CC1CN(C(=O)C2CC2C)CCO1 (stereo not drawn)	inactive: 1.25
CC(C)CCCC(C)N (stereo not drawn) [euspeclibcmpd410]	inactive: 0.114
O=c1cc(-c2ccccc2)oc2cc(O)c(O)c(O)c12 [euspeclibcmpd1724]	inactive: -0.573
NC(C=O)C(O)NNCc1ccc(O)c(O)c1O (stereo not drawn) [euspeclibcmpd32]	inactive: -0.0581

Compound	Srxn1-GFP intensity median modified Z-score
C/C=C/CC(C)C(O)C1C(=O)NC(CC)C(=O)N(C)CC(=O)N(C)C(CC(C)C)C(=O)NC(C(C)C)C(=O)N(C)C(CC(C)C)C(=O)NC(C)C(=O)NC(C)C(=O)N(C)C(CC(C)C)C(=O)N(C)C(CC(C)C)C(=O)N(C)C(C(C)C)C(=O)N1C (stereo not drawn) [euspeclibcmpd445]	active: 8.19
CCOC(=O)c1c(C)cc(O)c(C=O)c1O [euspeclibcmpd1571]	inactive: -0.398
Oc1cccc2[nH]ccc12 [euspeclibcmpd2031]	inactive: -0.358
C/C1=C/CC(C)(C)/C=C/C/C(C)=C/CC1 [euspeclibcmpd1338]	inactive: 0.112
NC(Cc1ccccc1)C(=O)O (stereo not drawn) [euspeclibcmpd1063]	inactive: 0.375
CCCCNc1cc(C(=O)O)cc(S(N)(=O)=O)c1Oc1ccccc1 [euspeclibcmpd424]	inactive: -0.232
CNC[C@H](O)[C@@H](O)[C@H](O)[C@H](O)CO [euspeclibcmpd2050]	inactive: 1.21
NCCCC(O)(P(=O)(O)O)P(=O)(O)O [euspeclibcmpd2187]	inactive: -0.613
NCCNCCNCCN [euspeclibcmpd837]	inactive: -0.128
CCN1CCCC(OC(=O)C(c2ccccc2)c2ccccc2)C1 (stereo not drawn) [euspeclibcmpd443]	inactive: 0.699
Nc1ccc(C(=O)O)cc1 [euspeclibcmpd2374]	inactive: -0.118
CC(C)NC[C@H](O)COc1cccc2ccccc12 [euspeclibcmpd2365]	inactive: -0.967
CN(C/C=C/c1ccccc1)Cc1cccc2ccccc12 [euspeclibcmpd791]	inactive: 0.553
CC(=O)CCCCn1c(=O)c2c(ncn2C)n(C)c1=O [euspeclibcmpd591]	inactive: 0.162
Cc1cc(C)cc(OCC2CNC(=O)O2)c1 (stereo not drawn) [euspeclibcmpd668]	inactive: -0.207
COc1ccc(C(=O)O)c(O)c1OC [euspeclibcmpd1494]	inactive: -0.416
O=C(O)[C@H](O)[C@@H](O)[C@H](O[C@@H]1O[C@H](CO)[C@H](O)[C@H](O)[C@H]1O)[C@H](O)CO [euspeclibcmpd2054]	inactive: -0.254
O=C(O[C@@H]1Cc2c(O)cc(O)cc2O[C@@H]1c1ccc(O)c(O)c1)c1cc(O)c(O)c(O)c1 [euspeclibcmpd1530]	inactive: -0.77
CNCCCC12CCC(c3ccccc31)c1ccccc12 [euspeclibcmpd174]	inactive: 0.89
OC(c1cc(C(F)(F)F)nc2c(C(F)(F)F)cccc12)C1CCCCN1 (stereo not drawn) [euspeclibcmpd519]	inactive: 0.254
C/C=C/c1ccc(OC)cc1 [euspeclibcmpd597]	inactive: -0.344
O[C@H]1[C@H](O)[C@@H](O)[C@H](O)[C@@H](O)[C@H]1O [euspeclibcmpd161]	inactive: -0.185
CC1=C(C(=O)O)N2C(=O)C(NC(=O)C(N)c3ccccc3)C2SC1 (stereo not drawn) [euspeclibcmpd429]	inactive: 0.0268
